Some test systems named below: MZ2-MEL; MeWo; RPMI7951; RVH-421; SkMel28; SkMel2; SkMel30; SkMel5; UACC257; UACC62.
Holding throughout (test): cell count relative to DMSO control; melanoma cells; higher = more viable cells
Common to all, as to settings: library dose: low library concentration; 72 h

The list shows a part of the results. Many values rest on one well or one pass, so single values are uncertain.
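Note: cell number obtained by counting DAPI-stained nuclei in high-throughput microscope images with image analysis software, screen run in 1,536-well plates.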

On to `COc1ccc(C2=N[C@@H](c3ccc(Cl)cc3)[C@@H](c3ccc(Cl)cc3)N2C(=O)N2CCNC(=O)C2)c(OC(C)C)c1` [Nutlin-3] + CC(C)CCN1c2nc(Nc3cc(F)c(O)c(F)c3)ncc2N(C)C(=O)C1C [BID1870] (first compound 0.1 µM, partner dose 0.2 µM), for which the cell count with MZ2-MEL was 103%; in the experiment with MeWo, 99.1%; in the experiment on RPMI7951, 104%; with RVH-421, 68.5%; in the experiment on SkMel28 it was 89%; in the experiment on SkMel2, 93.5%. In addition, the cell count in the experiment on SkMel30 came out at 86.4%; in the experiment with SkMel5, 107%; in the experiment on UACC257, 101%; in the experiment on UACC62 it was 84.5%.
`CC(C)C[C@H](NC(=O)[C@H](Cc1ccccc1)NC(=O)c1cnccn1)B(O)O` [Bortezomib] + O=S(=O)(c1ccccc1)N(CC(F)(F)F)c1ccc(C(O)(C(F)(F)F)C(F)(F)F)cc1 [T0901317] (first compound 0.001 µM, partner dose 1.4 µM): the cell count in the experiment with MZ2-MEL is 51.4%; in the experiment on MeWo, 79.9%; in the experiment on RPMI7951, 59%; with RVH-421 it was 72%; in the experiment on SkMel28, 64.4%; with SkMel2, 89.4%. Also, the cell count with SkMel30 was found to be 64.6%; in the experiment on SkMel5 it was 92%; in the experiment on UACC257 it was 87.1%; in the experiment with UACC62, 60.2%.
Turning to `CC(C)C[C@H](NC(=O)[C@H](Cc1ccccc1)NC(=O)c1cnccn1)B(O)O` [Bortezomib] + CCCCCCCCCCCC1=C(O)C(=O)C=C(O)C1=O [Embelin] (first compound 0.001 µM, partner dose 1.2 µM), the cell count in the experiment with MZ2-MEL came to 97.7%; in the experiment with MeWo it was 99.3%; in the experiment on RPMI7951 it was 100%; in the experiment with RVH-421, 122%; with SkMel28, 127%; with SkMel2, 97.7%. Further, the cell count in the experiment on SkMel30 was 106%; in the experiment with SkMel5 it was 96.5%; in the experiment with UACC257, 137%; in the experiment on UACC62, 101%.
Take `CC(C)C[C@H](NC(=O)[C@H](Cc1ccccc1)NC(=O)c1cnccn1)B(O)O` [Bortezomib] + Cn1cc(/C=C2\C(=O)Nc3cccnc32)c2ccccc21 [GW441756] (first compound 0.001 µM, partner dose 0.4 µM): the cell count in the experiment on MZ2-MEL was 47.2%; in the experiment with MeWo, 76.9%; in the experiment on RPMI7951, 54.8%; in the experiment on RVH-421, 36.6%; in the experiment with SkMel28, 66.9%; in the experiment on SkMel2, 103%. Moreover, the cell count turned out to be 57.8% with SkMel30, 85.3% with SkMel5, 65.7% with UACC257 and 71.5% in the experiment with UACC62.
`Cc1cn(-c2cc(NC(=O)c3ccc(C)c(Nc4nccc(-c5cccnc5)n4)c3)cc(C(F)(F)F)c2)cn1` [nilotinib] + O=C(Nc1cccc(Cl)c1)Nc1ncc(CCNc2ncnc3ccsc23)s1 [SNS314] (first compound 0.2 µM, partner dose 0.0008 µM): the cell count in the experiment on MZ2-MEL amounted to 88.4%; in the experiment on MeWo, 98.6%; in the experiment on RPMI7951 it was 71.4%; with RVH-421, 98.7%; in the experiment on SkMel28, 94.7%; in the experiment on SkMel2, 95.7%. Moreover, the cell count with SkMel30 is 78.9%; in the experiment with SkMel5, 106%; in the experiment on UACC257, 107%; in the experiment with UACC62 it was 82.4%.
Consider `Cn1c(=O)n(-c2ccc(C(C)(C)C#N)cc2)c2c3cc(-c4cnc5ccccc5c4)ccc3ncc21` + COc1cc2ncnc(Nc3ccc(Oc4ccccc4)cc3)c2cc1OC [SrcI1] (first compound 0.004 µM, partner dose 2 µM), for which the cell count was 94% in the experiment on MZ2-MEL; 72.8% with MeWo; 76.8% in the experiment on RPMI7951; 151% with RVH-421; 78.2% with SkMel28; 91.9% in the experiment on SkMel2. In addition, the cell count in the experiment on SkMel30 worked out at 60.6%; in the experiment on SkMel5 it was 114%; in the experiment on UACC257, 92.9%; with UACC62 it was 90.7%.
For `Cc1cn(-c2cc(NC(=O)c3ccc(C)c(Nc4nccc(-c5cccnc5)n4)c3)cc(C(F)(F)F)c2)cn1` [nilotinib] + O=C(O)C(=O)Nc1sc2c(c1C(=O)O)CCNC2 [TCS401] (first compound 0.2 µM, partner dose 1.66667 µM), the cell count in the experiment on MZ2-MEL worked out at 101%; with MeWo, 76.3%; in the experiment on RPMI7951, 96.8%; in the experiment with RVH-421, 85.1%; in the experiment with SkMel28 it was 112%; in the experiment with SkMel2, 101%. Further, the cell count in the experiment on SkMel30 was 91.1%; with SkMel5 it was 87.9%; with UACC257 it was 75%; in the experiment on UACC62, 111%.
Regarding `Cc1cc(Nc2cc(N3CCN(C)CC3)nc(/C=C/c3ccccc3)n2)n[nH]1` + Cc1cc([N+](=O)[O-])ccc1NS(=O)(=O)c1cc(Cl)ccc1Cl [FH535] (first compound 0.04 µM, partner dose 1 µM), the cell count came to 92.4% in the experiment on MZ2-MEL; 87.5% in the experiment with MeWo; 95.5% with RPMI7951; 84% with RVH-421; 85.3% in the experiment with SkMel28; 94.4% with SkMel2. For the same molecule, the cell count in the experiment on SkMel30 is 81.7%; in the experiment on SkMel5 it was 89.2%; in the experiment on UACC257, 77.9%; in the experiment with UACC62 it was 72.5%.
Consider `COc1ccc(C2=N[C@@H](c3ccc(Cl)cc3)[C@@H](c3ccc(Cl)cc3)N2C(=O)N2CCNC(=O)C2)c(OC(C)C)c1` [Nutlin-3] + O=S(=O)(c1ccccc1)N(CC(F)(F)F)c1ccc(C(O)(C(F)(F)F)C(F)(F)F)cc1 [T0901317] (first compound 0.1 µM, partner dose 1.4 µM), for which the cell count in the experiment with MZ2-MEL was found to be 88.9%; in the experiment with MeWo, 97.5%; in the experiment on RPMI7951, 84.3%; with RVH-421, 58.4%; in the experiment on SkMel28, 89.3%; with SkMel2, 101%. The cell count in the experiment on SkMel30 is 97.2%; in the experiment with SkMel5, 83%; with UACC257 it was 105%; with UACC62, 84.1%.
Regarding `CC(C)C[C@H](NC(=O)[C@H](Cc1ccccc1)NC(=O)c1cnccn1)B(O)O` [Bortezomib] + O=C(O)c1ccc(-c2c[nH]c3ncc(-c4ccccc4)cc23)cc1C1CCCC1 [GSK650394] (first compound 0.001 µM, partner dose 0.16 µM), the cell count in the experiment on MZ2-MEL was 70.5%; with MeWo it was 89.8%; in the experiment on RPMI7951, 77.1%; in the experiment on RVH-421, 48.1%; in the experiment with SkMel28 it was 80.7%; in the experiment with SkMel2, 91.4%. The cell count was 94.7% in the experiment with SkMel30, 84.6% in the experiment with SkMel5, 78.3% in the experiment with UACC257 and 83.1% in the experiment with UACC62.
Take `COc1ccc(C2=N[C@@H](c3ccc(Cl)cc3)[C@@H](c3ccc(Cl)cc3)N2C(=O)N2CCNC(=O)C2)c(OC(C)C)c1` [Nutlin-3] + COc1cc2ncnc(Nc3ccc(Oc4ccccc4)cc3)c2cc1OC [SrcI1] (first compound 0.1 µM, partner dose 2 µM): the cell count stood at 90.8% in the experiment with MZ2-MEL; 92% in the experiment with MeWo; 107% in the experiment with RPMI7951; 114% in the experiment on RVH-421; 69.5% in the experiment on SkMel28; 101% in the experiment on SkMel2. Besides, the cell count with SkMel30 is 81.2%; in the experiment with SkMel5 it was 94.3%; in the experiment with UACC257 it was 81.4%; in the experiment on UACC62, 96.1%.

These data come from the supplement of paper PMC4604168 (melanoma cell lines).
